Holding throughout (assay): split reporter; BiFC: N-terminal YN and YC fusions co-expressed in epidermal cells of N. benthamiana leaves, observed 3 days after infiltration by spinning-disk microscopy; CFP-N7 as transformation control
Assay [1] has as its target T1, CESA1, N-terminal YN or YC fusion (BiFC) (Arabidopsis thaliana) (UniProt O48946).
T1 sequence: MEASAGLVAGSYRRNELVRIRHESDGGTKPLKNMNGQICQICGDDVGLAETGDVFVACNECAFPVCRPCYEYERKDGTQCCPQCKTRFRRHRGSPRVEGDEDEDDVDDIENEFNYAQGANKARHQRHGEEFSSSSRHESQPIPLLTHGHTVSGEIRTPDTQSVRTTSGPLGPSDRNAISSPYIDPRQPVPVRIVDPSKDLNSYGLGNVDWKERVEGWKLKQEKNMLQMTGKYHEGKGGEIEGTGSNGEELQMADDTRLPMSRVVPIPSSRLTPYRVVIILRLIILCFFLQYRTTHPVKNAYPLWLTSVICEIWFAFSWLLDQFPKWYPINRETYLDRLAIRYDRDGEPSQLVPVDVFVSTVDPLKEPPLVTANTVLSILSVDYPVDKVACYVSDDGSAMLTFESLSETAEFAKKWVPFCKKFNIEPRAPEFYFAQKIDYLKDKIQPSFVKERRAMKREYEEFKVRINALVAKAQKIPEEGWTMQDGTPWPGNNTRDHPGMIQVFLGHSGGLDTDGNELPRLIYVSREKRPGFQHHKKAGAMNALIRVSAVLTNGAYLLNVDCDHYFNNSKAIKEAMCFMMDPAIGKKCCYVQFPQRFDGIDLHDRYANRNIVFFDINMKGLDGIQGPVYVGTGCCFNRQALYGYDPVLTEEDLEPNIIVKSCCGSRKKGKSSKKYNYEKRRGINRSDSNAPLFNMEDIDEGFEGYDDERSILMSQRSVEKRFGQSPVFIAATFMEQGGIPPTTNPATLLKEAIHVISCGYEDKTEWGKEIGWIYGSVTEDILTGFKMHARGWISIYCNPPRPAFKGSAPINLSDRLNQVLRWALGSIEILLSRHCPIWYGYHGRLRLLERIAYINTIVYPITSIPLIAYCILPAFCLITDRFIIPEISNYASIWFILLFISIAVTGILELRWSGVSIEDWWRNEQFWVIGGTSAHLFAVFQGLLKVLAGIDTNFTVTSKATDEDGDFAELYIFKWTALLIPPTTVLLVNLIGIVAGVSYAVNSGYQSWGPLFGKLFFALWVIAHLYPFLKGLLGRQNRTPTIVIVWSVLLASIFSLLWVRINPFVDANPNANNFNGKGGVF

Assay [2] concerns the target T2, CESA3, N-terminal YN or YC fusion (BiFC) (Arabidopsis thaliana) (UniProt Q941L0).
T2 sequence: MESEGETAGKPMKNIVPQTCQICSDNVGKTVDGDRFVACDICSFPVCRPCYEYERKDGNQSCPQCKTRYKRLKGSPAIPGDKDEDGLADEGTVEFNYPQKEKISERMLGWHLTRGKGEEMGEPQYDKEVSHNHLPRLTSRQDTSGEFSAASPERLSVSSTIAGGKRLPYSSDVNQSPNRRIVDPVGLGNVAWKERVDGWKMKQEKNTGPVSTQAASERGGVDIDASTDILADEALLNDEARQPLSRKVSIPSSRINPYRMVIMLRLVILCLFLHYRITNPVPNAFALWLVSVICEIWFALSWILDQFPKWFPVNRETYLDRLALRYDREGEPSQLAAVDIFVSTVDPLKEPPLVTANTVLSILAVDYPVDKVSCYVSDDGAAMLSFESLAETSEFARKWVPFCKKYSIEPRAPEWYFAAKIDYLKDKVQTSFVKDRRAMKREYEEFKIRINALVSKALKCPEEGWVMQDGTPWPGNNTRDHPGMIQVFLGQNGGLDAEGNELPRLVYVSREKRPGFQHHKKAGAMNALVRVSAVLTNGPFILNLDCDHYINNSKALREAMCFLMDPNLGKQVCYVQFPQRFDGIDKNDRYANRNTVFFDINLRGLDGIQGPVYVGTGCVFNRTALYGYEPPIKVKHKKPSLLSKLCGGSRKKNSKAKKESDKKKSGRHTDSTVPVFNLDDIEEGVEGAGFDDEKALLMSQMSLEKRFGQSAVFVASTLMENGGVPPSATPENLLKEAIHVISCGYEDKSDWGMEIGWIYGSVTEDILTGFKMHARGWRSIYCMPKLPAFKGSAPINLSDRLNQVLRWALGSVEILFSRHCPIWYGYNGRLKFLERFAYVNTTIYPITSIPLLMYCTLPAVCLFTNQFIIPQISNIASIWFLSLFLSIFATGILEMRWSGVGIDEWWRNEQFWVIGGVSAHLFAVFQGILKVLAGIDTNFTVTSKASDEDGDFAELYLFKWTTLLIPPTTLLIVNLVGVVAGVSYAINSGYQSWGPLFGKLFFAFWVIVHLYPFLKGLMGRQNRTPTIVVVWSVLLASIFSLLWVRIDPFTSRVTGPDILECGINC

The target of assay [3] is T3, CESA6, N-terminal YN or YC fusion (BiFC) (Arabidopsis thaliana) (UniProt Q94JQ6).
T3 sequence: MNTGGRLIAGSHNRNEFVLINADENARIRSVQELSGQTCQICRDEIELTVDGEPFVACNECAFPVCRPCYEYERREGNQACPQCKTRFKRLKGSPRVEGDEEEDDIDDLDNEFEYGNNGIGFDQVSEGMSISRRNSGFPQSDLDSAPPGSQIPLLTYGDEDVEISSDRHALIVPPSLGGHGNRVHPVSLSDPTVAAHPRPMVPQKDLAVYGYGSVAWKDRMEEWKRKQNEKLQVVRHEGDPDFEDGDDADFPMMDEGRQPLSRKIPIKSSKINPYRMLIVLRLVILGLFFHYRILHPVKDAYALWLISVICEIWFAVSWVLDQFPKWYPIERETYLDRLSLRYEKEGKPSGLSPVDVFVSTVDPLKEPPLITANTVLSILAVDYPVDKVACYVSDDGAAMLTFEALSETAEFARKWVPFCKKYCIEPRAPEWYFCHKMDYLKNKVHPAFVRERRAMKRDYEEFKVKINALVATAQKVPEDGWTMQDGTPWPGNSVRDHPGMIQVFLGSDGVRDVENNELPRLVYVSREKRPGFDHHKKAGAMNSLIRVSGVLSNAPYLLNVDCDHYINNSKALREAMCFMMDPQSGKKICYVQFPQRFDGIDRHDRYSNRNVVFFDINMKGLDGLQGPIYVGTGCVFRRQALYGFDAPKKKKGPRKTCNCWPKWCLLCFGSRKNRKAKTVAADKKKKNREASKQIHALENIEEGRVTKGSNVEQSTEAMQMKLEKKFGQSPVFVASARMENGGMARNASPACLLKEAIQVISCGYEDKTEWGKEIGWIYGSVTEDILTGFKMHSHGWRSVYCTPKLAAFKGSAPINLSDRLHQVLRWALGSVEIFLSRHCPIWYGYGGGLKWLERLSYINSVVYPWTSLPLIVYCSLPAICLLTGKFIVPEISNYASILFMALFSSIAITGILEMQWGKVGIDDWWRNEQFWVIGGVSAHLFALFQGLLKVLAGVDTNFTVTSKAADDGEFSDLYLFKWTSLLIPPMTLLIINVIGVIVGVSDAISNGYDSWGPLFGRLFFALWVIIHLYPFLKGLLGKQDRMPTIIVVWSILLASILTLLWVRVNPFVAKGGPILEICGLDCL

These are yes or no findings as the source states them, for the method shown. Binding seen in cells or lysates may run through a third protein. Some entries that bind do so weakly or less than the wild type. Sequences can lack the tags named with a protein.

Among the data in PMC10868759 are binding values, retold here.

B1: CESA1, N-terminal YN or YC fusion (BiFC) (protein, UniProt O48946 1-1081)
chain: T1 sequence
Turning to B1, the binding entry in assay [1] is given as “binds”.

B2: TIP1, N-terminal YN or YC fusion (BiFC) (enzyme, UniProt Q52T38 1-620)
chain: MSSEIEVVEEIQSNPKENGESSSKGIEEESLKNDVYTAAAYGDLEKLHRLVECEGSSVSEPDALGYYALQWSALNNRVAVAQYLIEHGGDVNATDHTGQTALHWSAVRGAIQVAELLLQEGARVDATDMYGYQATHVAAQYGQTAFLCHVVSKWNADPDVPDNDGRSPLHWAAYKGFADSIRLLLFLDAYRGRQDKEGCTPLHWAAIRGNLEACTVLVQAGKKEDLMITDKTGLTPAQLAAEKNHRQVSFFLGNARSLLEKRCDGSSPLGRLSKLGLAPVLWIMILLLLLVYTNSVVLASNLPKLTTGIGALAWLGFILATAGLFLFYRCSRKDPGYIRMNIHDPQTMKDDEPLLKIELNNPALLAGNWTQLCATCKIIRPLRAKHCSTCDRCVEQFDHHCPWVSNCVGKKNKWEFFLFLLLEVLAMLITGGVTLARVLSDPSAPSSFGAWMSHVASNHVGALSFLLVEFCLFFSVAVLTVIQASQISRNITTNEMANALRYSYLRGPGGRFRNPYDLGCRRNCSDFLVKGYNEDIECHEEDATQRPEGISMMQMQRNPNLQNGNGHVAIDVNPTHNSQSAHVHSANCSHSHNSKSKSDNVPLGLGLGLSRNPTRPVVSP
In the case of B2, the binding entry in assay [2], in assay [1] and in assay [3] was “binds” each time.
